Data: patent US20260184783A1 (Merck Sharp & Dohme, published 2026)

Assays:
[1] = biological target: extracellular domain of PD-1 (1-199) fused to the PK subunit (human, UniProt Q15116 part only); assay: cell-based or functional assay
[2] = biological target: T1, extracellular domain of LAG-3 (1-477) fused to the EA subunit (human, UniProt P18627 23-477); assay: cell-based or functional assay
T1 sequence (looked up): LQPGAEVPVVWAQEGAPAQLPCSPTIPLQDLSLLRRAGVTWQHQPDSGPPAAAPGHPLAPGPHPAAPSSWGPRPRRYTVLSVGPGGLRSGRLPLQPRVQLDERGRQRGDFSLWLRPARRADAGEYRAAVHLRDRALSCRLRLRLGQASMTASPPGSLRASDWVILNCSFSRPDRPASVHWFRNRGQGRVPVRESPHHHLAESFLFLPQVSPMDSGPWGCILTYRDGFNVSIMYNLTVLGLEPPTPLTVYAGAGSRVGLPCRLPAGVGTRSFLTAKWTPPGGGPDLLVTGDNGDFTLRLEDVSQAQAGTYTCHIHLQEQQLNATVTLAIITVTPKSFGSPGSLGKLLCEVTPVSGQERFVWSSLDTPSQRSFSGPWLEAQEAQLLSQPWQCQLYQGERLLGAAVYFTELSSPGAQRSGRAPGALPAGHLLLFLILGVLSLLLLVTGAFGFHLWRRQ

[3] = biological target: T2, human LAG-3 expressed on cells (human, UniProt P18627 23-525); assay: cell-based or functional assay
T2 sequence: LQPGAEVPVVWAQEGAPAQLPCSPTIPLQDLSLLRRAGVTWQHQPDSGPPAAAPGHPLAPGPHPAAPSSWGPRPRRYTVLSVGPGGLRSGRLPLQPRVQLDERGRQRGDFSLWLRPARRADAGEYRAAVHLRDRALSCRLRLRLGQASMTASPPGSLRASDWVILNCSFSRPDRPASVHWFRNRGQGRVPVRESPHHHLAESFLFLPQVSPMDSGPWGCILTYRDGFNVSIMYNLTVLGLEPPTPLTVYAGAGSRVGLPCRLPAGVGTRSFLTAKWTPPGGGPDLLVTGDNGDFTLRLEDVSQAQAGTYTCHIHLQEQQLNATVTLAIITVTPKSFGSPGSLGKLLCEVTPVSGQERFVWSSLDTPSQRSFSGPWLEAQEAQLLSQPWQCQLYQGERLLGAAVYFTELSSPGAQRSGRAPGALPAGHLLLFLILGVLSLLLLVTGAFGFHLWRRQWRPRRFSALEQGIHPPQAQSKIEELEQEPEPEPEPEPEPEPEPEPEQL

[4] = biological target: T3, human PD-1 expressed on cells (human, UniProt Q15116 25-288); assay: cell-based or functional assay
[5] = biological target: T2, human LAG-3 expressed on cells; assay: cell-based or functional assay; remark: listed apart in the source
[6] = biological target: MSA; assay: SPR, Biacore T100; MSA block of Table G, Nanobody as analyte
[7] = biological target: T3, human PD-1 expressed on cells; assay: flow cytometry on CHO-K1 cells expressing human PD-1; ABH0074 + PE goat anti-mouse
Protocol: (§1) A Nanobody dilution series was prepared in assay buffer: PBS/10% FBS/0.05% sodium azide. 1×10⁵ cells/well were transferred to a 96-well V-bottom plate and resuspended in 100 μL Nanobody dilution.

[8] = biological target: T2, human LAG-3 expressed on cells; assay: flow cytometry on CHO-K1 cells expressing human LAG-3; ABH0074 + PE goat anti-mouse
Protocol: as §1

[9] = biological target: T4, rhesus/cynoLAG-3 expressed on CHO cells (rhesus/cynomolgus monkey, UniProt A0A5F8A874 23-533); assay: flow cytometry on CHO-K1 cells expressing rhesus/cyno LAG-3; ABH0074 + PE goat anti-mouse
T4 construct: also called CHO.rhesus/cynoLAG3; rhesus/cynomolgous monkey LAG-3
T4 sequence: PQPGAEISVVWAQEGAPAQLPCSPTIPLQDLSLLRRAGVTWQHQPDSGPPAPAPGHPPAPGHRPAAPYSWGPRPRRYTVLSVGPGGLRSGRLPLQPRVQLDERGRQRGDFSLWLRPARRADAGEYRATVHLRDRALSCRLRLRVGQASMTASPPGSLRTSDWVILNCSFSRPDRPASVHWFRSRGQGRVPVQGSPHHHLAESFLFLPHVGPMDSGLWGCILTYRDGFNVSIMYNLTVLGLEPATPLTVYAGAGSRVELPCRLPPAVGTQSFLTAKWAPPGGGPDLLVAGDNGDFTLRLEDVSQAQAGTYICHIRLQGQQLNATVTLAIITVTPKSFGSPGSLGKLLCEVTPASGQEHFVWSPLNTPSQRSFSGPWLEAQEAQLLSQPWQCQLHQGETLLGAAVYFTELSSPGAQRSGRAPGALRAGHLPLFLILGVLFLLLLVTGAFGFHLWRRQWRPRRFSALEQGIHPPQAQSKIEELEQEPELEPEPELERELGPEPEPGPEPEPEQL
Protocol: as §1

[10] = biological target: T5, Rhesus Serum Albumin (rhesus, UniProt Q28522 17-600); assay: SPR, Biacore T100; Rhesus Serum Albumin immobilised on CM5, Nanobody as analyte; Langmuir with mass transport
T5 construct: also called RhSA; rhesus albumin
Protocol: (§2) Kinetic analysis of the Nanobodies was performed by SPR technology, using the Biacore T100 instrument (GE Healthcare). […] After immobilization, surfaces were deactivated with 1M ethanolamine/HCl (pH 8.5). The flow rate during the sensor preparation was set on 5 μl/min.
(§3) Sensorgram processing and data analysis was performed with Biacore T100 Evaluation Software Version 2.0.4 (GE Healthcare). […] Processed curves were evaluated via fitting with the model ‘Langmuir with Mass Transport’.

[11] = biological target: T5, Rhesus Serum Albumin; assay: as above; remark: listed apart in the source
Protocol: as §2, §3

[12] = biological target: T3, human PD-1 expressed on cells; assay: flow cytometry competition: blockade of human PD-L1-hFc binding to CHO-K1 cells expressing human PD-1; PE goat anti-human IgG
Protocol: (§4) Ligand competition assays were performed on human PD-1 over-expressing CHO cells. A Nanobody dilution series was prepared in assay buffer: PBS/10% FBS/0.05% sodium azide. […] 2×10⁴ cells/well were seeded in V-bottom 96-well plates and resuspended in 200 μL/well of the Nanobody/ligand dilution. After 90 minutes incubation at 4° C., the cells were washed with 100 μL/well assay buffer and resuspended in 100 μL/well PE-labeled Goat anti-human IgG (Southern Biotech, 2043-09). Samples were incubated for 30 minutes at 4° C., washed, and resuspended in 100 μL/well of 5 nM TOPRO3 (LifeTechnologies, T3606) solution before analysis on FACS CANTO II (BD).

[13] = biological target: T3, human PD-1 expressed on cells; assay: as above; remark: listed apart in the source
Protocol: as §4

[14] = biological target: T3, human PD-1 expressed on cells; assay: flow cytometry competition: blockade of human PD-L2-hFc binding to CHO-K1 cells expressing human PD-1; PE goat anti-human IgG
Protocol: as §4

Chain of MSA (P07724 25-608): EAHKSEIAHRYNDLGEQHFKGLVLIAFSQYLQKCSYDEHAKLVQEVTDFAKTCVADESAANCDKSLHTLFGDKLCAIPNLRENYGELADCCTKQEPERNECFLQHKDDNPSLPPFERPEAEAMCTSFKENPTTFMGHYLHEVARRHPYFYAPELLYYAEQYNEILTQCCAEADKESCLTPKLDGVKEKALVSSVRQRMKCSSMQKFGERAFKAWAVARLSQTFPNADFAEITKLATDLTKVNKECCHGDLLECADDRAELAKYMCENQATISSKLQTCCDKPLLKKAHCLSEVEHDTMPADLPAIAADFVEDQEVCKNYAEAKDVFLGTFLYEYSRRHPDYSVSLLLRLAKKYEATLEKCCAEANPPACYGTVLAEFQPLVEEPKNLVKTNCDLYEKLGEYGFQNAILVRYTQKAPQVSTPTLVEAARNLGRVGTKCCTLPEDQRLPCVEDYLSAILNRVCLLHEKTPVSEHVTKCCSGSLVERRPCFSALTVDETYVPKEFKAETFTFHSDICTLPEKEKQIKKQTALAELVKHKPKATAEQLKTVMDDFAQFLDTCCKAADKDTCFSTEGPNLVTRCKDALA
T5 sequence (Q28522 17-600 limits assumed): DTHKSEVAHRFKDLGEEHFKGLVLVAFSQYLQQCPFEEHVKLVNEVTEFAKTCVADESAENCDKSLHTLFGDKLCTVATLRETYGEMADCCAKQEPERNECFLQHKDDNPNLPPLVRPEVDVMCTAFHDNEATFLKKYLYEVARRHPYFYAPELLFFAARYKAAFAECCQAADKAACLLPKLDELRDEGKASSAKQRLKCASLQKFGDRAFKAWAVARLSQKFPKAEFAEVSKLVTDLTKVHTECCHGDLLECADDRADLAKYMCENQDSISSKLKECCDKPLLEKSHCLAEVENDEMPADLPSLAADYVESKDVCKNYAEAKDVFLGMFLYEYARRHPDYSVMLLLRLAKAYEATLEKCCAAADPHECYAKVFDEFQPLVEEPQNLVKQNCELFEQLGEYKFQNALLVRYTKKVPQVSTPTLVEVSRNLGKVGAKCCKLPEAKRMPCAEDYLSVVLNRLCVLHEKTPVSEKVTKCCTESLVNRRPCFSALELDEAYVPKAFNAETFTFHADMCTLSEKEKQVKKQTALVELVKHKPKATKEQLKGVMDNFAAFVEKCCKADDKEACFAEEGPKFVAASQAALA
T3 sequence (Q15116 25-288 limits assumed): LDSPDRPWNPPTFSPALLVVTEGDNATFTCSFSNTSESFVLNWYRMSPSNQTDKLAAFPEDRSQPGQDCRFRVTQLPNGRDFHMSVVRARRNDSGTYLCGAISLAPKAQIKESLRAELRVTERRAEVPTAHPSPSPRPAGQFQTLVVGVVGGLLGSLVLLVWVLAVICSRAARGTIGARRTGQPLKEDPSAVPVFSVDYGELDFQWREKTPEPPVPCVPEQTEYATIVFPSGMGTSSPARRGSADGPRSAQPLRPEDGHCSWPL

B1: F023700931 (1PD102C12 (E1D, L11V, A14P, A74S, K83R, I89L)-35GS-1PD102C12 (L11V, A14P, A74S, K83R, I89L)-35GS-F0237611B09 (L11V, A14P, R41P, N43K, A62S, A74S, … (bispecific antibody)
chain: DVQLVESGGGVVQPGGSLRLSCAASGSIASIHAMGWFRQAPGKEREFVAVITWSGGITYYADSVKGRFTISRDNSKNTVYLQMNSLRPEDTALYYCAGDKHQSSWYDYWGQGTLVTVSSGGGGSGGGGSGGGGSGGGGSGGGGSGGGGSGGGGSEVQLVESGGGVVQPGGSLRLSCAASGSIASIHAMGWFRQAPGKEREFVAVITWSGGITYYADSVKGRFTISRDNSKNTVYLQMNSLRPEDTALYYCAGDKHQSSWYDYWGQGTLVTVSSGGGGSGGGGSGGGGSGGGGSGGGGSGGGGSGGGGSEVQLVESGGGVVQPGGSLRLSCAASGRTFSDYVMGWFRQAPGKEREFVAAISESGGRTHYADSVKGRFTISRDNSKNTLYLQMNSLRPEDTALYYCATTLLWWTSEYAPIKANDYDYWGQGTLVTVSSGGGGSGGGGSGGGGSGGGGSGGGGSGGGGSGGGGSEVQLVESGGGVVQPGGSLRLSCAASGRTFSDYVMGWFRQAPGKEREFVAAISESGGRTHYADSVKGRFTISRDNSKNTLYLQMNSLRPEDTALYYCATTLLWWTSEYAPIKANDYDYWGQGTLVTVSSGGGGSGGGGSGGGGSGGGGSGGGGSGGGGSGGGGS[about 120 residues not spelt out]
notes: pentavalent Nanobody fusion: two PD-1 modules, two LAG-3 modules, one anti-albumin module; Pichia or CHO expressed; also called F023700931-CHO-EXP1
In the case of B1, the “EC50 (read off the curve), proximity assay RLU” value [1] is reported as ~0.09 nM, the “EC50 (read off the curve), proximity assay RLU” value [2] is reported as ~0.09 nM and the “EC50 (read off the curve), IL-2 MSD-signal” value [3] is reported as ~4 nM. The “EC50 (read off the curve), IL-2 pg/ml” value [4] was ~0.7 nM, the “EC50 (read off the curve), IL-2 pg/ml” value [5] was ~0.7 nM and the Kd [6] was ~4100 nM. For the same binder, the koff [6] was < 0.6 s⁻¹, the kon [6] was > 500000 M⁻¹ s⁻¹ and the “EC50 (read off the curve)” value [7] was ~2 nM. For the same binder, the “EC50 (read off the curve)” value [8] was ~0.2 nM, the “EC50 (read off the curve)” value [9] was ~0.3 nM and the Kd [10] was 270 nM. The koff [10] was 0.0084 s⁻¹, the kon [10] was 32000 M⁻¹ s⁻¹ and the Kd [11] was 270 nM. For the same binder, the koff [11] was 0.0084 s⁻¹, the kon [11] was 32000 M⁻¹ s⁻¹ and the “IC50 (read off the curve)” value [12] was ~0.6 nM. The “IC50 (read off the curve)” value [13] was ~0.4 nM and the “IC50 (read off the curve)” value [14] was ~0.4 nM.

B2: F023700933 (1PD102C12 (E1D, L11V, A14P, A74S, K83R, I89L)-35GS-1PD102C12 (L11V, A14P, A74S, K83R, I89L)-35GS-ALB11002-A) (VHH)
chain: DVQLVESGGGVVQPGGSLRLSCAASGSIASIHAMGWFRQAPGKEREFVAVITWSGGITYYADSVKGRFTISRDNSKNTVYLQMNSLRPEDTALYYCAGDKHQSSWYDYWGQGTLVTVSSGGGGSGGGGSGGGGSGGGGSGGGGSGGGGSGGGGSEVQLVESGGGVVQPGGSLRLSCAASGSIASIHAMGWFRQAPGKEREFVAVITWSGGITYYADSVKGRFTISRDNSKNTVYLQMNSLRPEDTALYYCAGDKHQSSWYDYWGQGTLVTVSSGGGGSGGGGSGGGGSGGGGSGGGGSGGGGSGGGGS[about 120 residues not spelt out]
notes: monospecific, bivalent anti-human PD-1 control with anti-albumin module; also called Bivalent SO 1PD102C12 + ALB11002
With B2 the “EC50 (read off the curve)” value [7] was ~2 nM, the binding result [9] was “no binding (tested: 1e-7 M)” and the “IC50 (read off the curve)” value [12] was ~0.5 nM. For the same binder, the “IC50 (read off the curve)” value [13] was ~0.4 nM and the “IC50 (read off the curve)” value [14] was ~0.4 nM.

B3: F023700962 (F0237611B09 (E1D, L11V, A14P, R41P, N43K, A62S, A74S, K83R, V89L)-35GS-F0237611B09 (L11V, A14P, R41P, N43K, A62S, A74S, K83R, V89L)-35GS-ALB11002-A) (VHH)
chain: DVQLVESGGGVVQPGGSLRLSCAASGRTFSDYVMGWFRQAPGKEREFVAAISESGGRTHYADSVKGRFTISRDNSKNTLYLQMNSLRPEDTALYYCATTLLWWTSEYAPIKANDYDYWGQGTLVTVSSGGGGSGGGGSGGGGSGGGGSGGGGSGGGGSGGGGSEVQLVESGGGVVQPGGSLRLSCAASGRTFSDYVMGWFRQAPGKEREFVAAISESGGRTHYADSVKGRFTISRDNSKNTLYLQMNSLRPEDTALYYCATTLLWWTSEYAPIKANDYDYWGQGTLVTVSSGGGGSGGGGSGGGGSGGGGSGGGGSGGGGSGGGGS[about 120 residues not spelt out]
notes: monospecific, bivalent anti-human LAG-3 control with anti-albumin module; also called Bivalent SO 611B09 + ALB11002
B3 was tested, and the binding result [7] was “no binding (tested: about 5e-7 M)”, the “EC50 (read off the curve)” value [8] was ~0.2 nM and the “EC50 (read off the curve)” value [9] was ~0.3 nM.

Where two headings read alike, the source gives them in different places.
